{"source": "PubChem BioAssay AID588855", "about": "(National Center for Advancing Translational Sciences (NCATS), 2011)", "note": "Values joined by “and” are separate entries in the source; they are usually repeats but may differ in a detail not shown here. Identical values can stand only once. In all, about 410,000 compounds went through this assay and about 5,000 (1.2%) were called active. This list was built around the results that the source calls inconclusive (neither active nor inactive); the mix of calls is not that of the screen. The call rests on the fitted dose curve; in most records, active means well fitted inhibition curve with a large enough effect; inconclusive means small, poorly fitted or top-dose-only effect; inactive means no such curve, though single readings can be large or run the other way. A potency beside an inconclusive call is a rough fit, not a confirmed value. On the % scale 0 is the no-effect control and ±100 the full control effect; potency means the concentration at half of the fitted maximal effect; tags describe the fitted curve by direction and shape.", "data": [{"test": "qHTS for Inhibitors of TGF-b; further: nearly all actives have a fitted effect of over 65% in size", "details": "HepG2 CAGA-GFP TGF-b/SMAD3 reporter, GFP fluorescence, 18 h, TGF-beta stimulated, 500 pg/mL final; series mostly up to 46.1 µM; activity, negative = inhibition: at the top concentration", "procedure,_shortened": "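HEPG2 CAGA-GFP cells (1000/well, DMEM with 1% FBS) were pre-incubated 2 h at 37 degrees C, given compound by pin tool, then stimulated with TGF-beta at 500 pg/mL final for 18 h before per-cell GFP fluorescence imaging.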", "values": [{"smiles": "COc1ccc(-c2ccc3c(c2)CN(CC(C)C)Cc2cnnn2-3)cc1", "Potency": "inconclusive: 8.91 µM [inhibitor, partial curve, poor fit]"}, {"smiles": "COc1cccc(NC(=O)Cn2cc(C(=O)c3ccccc3)c3ccccc32)c1", "Potency": "active: 10 µM"}, {"smiles": "CCCOc1ccc(C2SCC(=O)Nc3c2c(C)nn3-c2cccc(C)c2)cc1OC", "note": "(centres undefined)", "Potency": "inconclusive: 22.4 µM [inhibitor, partial curve, poor fit]"}, {"smiles": "CCCNC(=O)c1cnn2c(C)c(Cc3c(C)cc(C)cc3C)c(C)nc12", "Potency": "inconclusive: 5.62 µM [inhibitor, single point]"}, {"smiles": "O=C(NCCCn1ccnc1)C(Cl)(Cl)Cl", "activity, negative = inhibition": "inactive: -0.166%"}, {"smiles": "COC(=O)C1=C(c2ccc3ccccc3c2)C[C@@H]2CC[C@H]1N2C(=O)NCCCOC(C)C", "activity, negative = inhibition": "inactive: -28.2%"}, {"smiles": "COC(=O)C1=C(c2ccc(OC(F)(F)F)cc2)C[C@@H]2CC[C@H]1N2C(=O)NCCOc1ccccc1Cl", "Potency": "inconclusive: 10 µM [inhibitor, partial curve, poor fit]"}, {"smiles": "COCCNC(=O)CN1C(=O)C(C)N=C(c2ccccc2)c2cc(Cl)ccc21", "note": "(centres undefined)", "activity, negative = inhibition": "inactive: 1.53%"}, {"smiles": "CN(C)C(CNC(=O)Cc1ccc(Br)cc1)c1ccccc1", "note": "(centres undefined)", "activity, negative = inhibition": "inactive: -3.57%"}, {"smiles": "Cc1nc2n(c(=O)c1CCN1CCC(c3noc4cc(F)ccc34)CC1)CCCC2", "Potency": "inconclusive: 15.8 µM [inhibitor, single point]"}, {"smiles": "CN1CCN(c2ccc3c(c2)S(=O)(=O)c2ccccc2C3=O)CC1", "Potency": "inconclusive: 31.6 µM [inhibitor, partial curve, poor fit]"}, {"smiles": "CN(C)c1ccc(C(=O)N/N=C/C23CC[C@@H](O)CC2(O)CC[C@@H]2[C@@H]3CCC3(C)C(C4=CC(=O)OC4)CCC23O)cc1", "note": "(some centres undefined)", "Potency": "inconclusive: 15.8 µM [inhibitor, single point]"}, {"smiles": "COc1ccc(OCCn2cc(/C=C(\\C#N)C(=O)NCc3ccco3)c3ccccc32)cc1", "Potency": "inconclusive: 0.112 µM [inhibitor, full curve, poor fit]"}, {"smiles": "Cc1cccc(C)c1-n1nnnc1C(c1ccccc1)N1CCC2(CC1)C(=O)NCN2c1ccccc1", "note": "(centres undefined)", "Potency": "inconclusive: 22.4 µM [inhibitor, single point]"}, {"smiles": "CN1CCC(O)(c2cccs2)C(C(=O)c2cccs2)C1", "note": "(centres undefined)", "Potency": "inconclusive: 15.8 µM [inhibitor, single point]"}, {"smiles": "C[C@@H]1O[C@@H](O[C@@H]2C=C3CC[C@@H]4C(CC[C@]5(C)[C@@H](c6ccc(=O)oc6)CC[C@]45O)[C@@]3(C)CC2)[C@H](O)[C@H](O)[C@H]1O", "note": "(some centres undefined)", "Potency": "active: 0.282 µM"}, {"smiles": "COc1ccc(CCNCc2ccccc2)cc1", "activity, negative = inhibition": "inactive: -0.183%"}, {"smiles": "COC(=O)C1=C(c2ccc(OC)c(OC)c2)C[C@@H]2CC[C@H]1N2C(=O)NC1Cc2ccccc2C1", "Potency": "inconclusive: 0.398 µM [inhibitor, full curve, poor fit]"}, {"smiles": "Cc1ccc(-n2c(/C=C\\c3ccc(F)cc3)nc3ccccc3c2=O)cc1Cl", "Potency": "inconclusive: 2.24 µM [inhibitor, partial curve, poor fit]"}, {"smiles": "O=C(CCc1ccccc1)N1C[C@H]2C[C@@H](C1)c1cccc(=O)n1C2", "activity, negative = inhibition": "inactive: 6.04%"}, {"smiles": "O=c1[nH]c2ccccc2n1C1CCN(C(c2ccccc2)c2nnnn2Cc2ccccc2)CC1", "note": "(centres undefined)", "Potency": "inconclusive: 12.6 µM [inhibitor, partial curve, poor fit]"}, {"smiles": "CCOC(=O)N(c1ccccc1)P1(=S)OCCO1", "activity, negative = inhibition": "inactive: 41.2%"}, {"smiles": "O=C1NCN(c2ccccc2)C12CCN(C(c1ccnc3ccccc13)c1nnnn1-c1ccc3c(c1)OCCO3)CC2", "note": "(centres undefined)", "Potency": "inconclusive: 35.5 µM [inhibitor, single point]"}, {"smiles": "c1ccc2sc(C3CCNCC3)nc2c1", "activity, negative = inhibition": "inactive: 4.59%"}, {"smiles": "Cc1cccc(-c2nc(CN3C(=O)CN=C(c4ccccc4)c4ccccc43)c(C)o2)c1", "Potency": "inconclusive: 28.2 µM [inhibitor, single point]"}, {"smiles": "O=C(c1cc(C(=O)NCc2ccccc2)c(=O)n(Cc2ccccc2)c1)c1cc(Cl)ccc1O", "Potency": "inconclusive: 35.5 µM [inhibitor, single point]"}, {"smiles": "COC(=O)C1=C(c2ccccc2)C[C@@H]2CC[C@H]1N2C(=O)N1CCCC1", "Potency": "inconclusive: 1.12 µM [inhibitor, full curve, poor fit]"}, {"smiles": "O=C1NC(=O)N(Cc2ccco2)C(=O)/C1=C/c1cccn1CCOc1ccccc1Cl", "Potency": "inconclusive: 15.8 µM [inhibitor, single point]"}, {"smiles": "CN(C)C(=O)O/N=C(\\N)COc1ccc(C(C)(C)C)cc1", "Potency": "inconclusive: 35.5 µM [inhibitor, single point]"}, {"smiles": "Cc1cccc(N(C)S(=O)(=O)c2cc(-c3cnc(C4CC4)o3)ccc2C)c1", "Potency": "inconclusive: 35.5 µM [inhibitor, single point]"}, {"smiles": "O=c1c2ccccc2nc(/C=C/c2ccc(F)cc2)n1-c1ccccn1", "activity, negative = inhibition": "inactive: -4.02%"}, {"smiles": "O=c1c2ccccc2nc(-c2ccccc2)n1-c1ccncc1", "activity, negative = inhibition": "inactive: -1.36%"}, {"smiles": "CC(C)c1oc(=O)cc2c1[C@@H](O)[C@H]1OC(=O)[C@@]3(C)CC[C@@H](O)[C@@]2(C)C13", "note": "(some centres undefined)", "Potency": "active: 2 µM"}, {"smiles": "CCOc1ccc(NC(=O)Cn2cc(C(=O)c3ccccc3)c3ccccc32)cc1", "Potency": "inconclusive: 15.8 µM [inhibitor, single point]"}, {"smiles": "CCOC(=O)[C@]12Cc3cc4c(cc3[C@H]1N(Cc1ccccc1)C(=O)c1ccccc12)OCO4", "Potency": "inconclusive: 15.8 µM [inhibitor, single point] and inconclusive: 35.5 µM [inhibitor, single point]"}, {"smiles": "Cc1ccc(S(=O)(=O)N(C)C[C@@H]2OCc3ccccc3-c3c(n(C)c4ccccc34)C(=O)N([C@H](C)CO)C[C@@H]2C)cc1", "Potency": "inconclusive: 35.5 µM [inhibitor, single point]"}, {"smiles": "CCn1cc(CN2CCCC(C(=O)c3cccc(OC)c3)C2)c(C)n1", "note": "(centres undefined)", "activity, negative = inhibition": "inactive: -5.3%"}, {"smiles": "O=C1C=CC(=O)C=C1", "Potency": "inactive"}, {"smiles": "Cc1c(P(=S)(c2ccccc2)c2ccccc2)[n+]2ccccc2n1C/C=C/c1ccccc1", "Potency": "inconclusive: 15.8 µM [inhibitor, single point]"}, {"smiles": "Nc1nc(F)nc2c1ncn2[C@@H]1O[C@H](CO)[C@@H](O)[C@H]1O", "Potency": "active: 0.794 µM"}, {"smiles": "CC[C@H]1CN2CCc3cc(OC)c(OC)cc3C2C[C@@H]1C[C@H]1NCCc2cc(OC)c(OC)cc21", "note": "(some centres undefined)", "activity, negative = inhibition": "inactive: -109%"}, {"smiles": "O=C(COc1ccc(Br)cc1)N1CCN(Cc2c[nH]c3ccccc23)CC1", "Potency": "active: 11.2 µM"}, {"smiles": "Cc1ccc(Cl)cc1NC(=O)N(Cc1ccc2c(c1)OCO2)C1CCN(Cc2ccccc2)CC1", "Potency": "inconclusive: 20 µM [inhibitor, single point]"}, {"smiles": "COc1ccc(-n2nnnc2C(c2cccc3ccccc23)N2CCC3(CC2)C(=O)NCN3c2ccccc2)cc1", "note": "(centres undefined)", "Potency": "inconclusive: 14.1 µM [inhibitor, partial curve, poor fit]"}, {"smiles": "C[n+]1cccc(C(=O)NCC2CCCO2)c1", "note": "(centres undefined)", "Potency": "inconclusive: 6.31 µM [inhibitor, single point]"}, {"smiles": "Cn1c(=O)n(C)c2cc(CNCCc3ccc(F)cc3)ccc21", "Potency": "inconclusive: 35.5 µM [inhibitor, single point]"}, {"smiles": "Cc1cc(/C=C2\\C(=O)NC(=O)N(c3ccc(Cl)cc3)C2=O)c(C)n1-c1sc2c(c1C#N)CCCC2", "Potency": "active: 3.55 µM"}, {"smiles": "Cc1ccc(NC(=O)Cn2cc(C(=O)c3ccccc3)c3ccccc32)cc1", "Potency": "inconclusive: 25.1 µM [inhibitor, single point]"}, {"smiles": "CN1CSC(=S)N(C)C1", "Potency": "inconclusive: 7.94 µM [inhibitor, partial curve, poor fit]"}, {"smiles": "CCC(=NCCC1=CCCCC1)c1c(O)[nH]c(=O)[nH]c1=O", "Potency": "inconclusive: 0.794 µM [inhibitor, full curve]"}, {"smiles": "CC(C)CCn1c(N)c(C(=O)OCC2CCCO2)c2nc3ccccc3nc21", "note": "(centres undefined)", "Potency": "inconclusive: 35.5 µM [inhibitor, single point]"}, {"smiles": "CCOc1ccc(-n2c(-c3ccoc3)nc3ccccc3c2=O)cc1", "activity, negative = inhibition": "inactive: -16.2%"}, {"smiles": "CC(=NCCC1=CCCCC1)c1c(O)n(-c2ccccc2)c(=O)[nH]c1=O", "activity, negative = inhibition": "inactive: 0%"}, {"smiles": "O=c1[nH]c(=O)n(-c2cccc3ccccc23)c(O)c1C=NCc1ccc2c(c1)OCO2", "activity, negative = inhibition": "inactive: -11.8%"}, {"smiles": "Cc1ccc(-c2nnc(Nc3ccc(Br)cc3)c3ccccc23)cc1S(=O)(=O)NCc1nc2ccccc2[nH]1", "Potency": "inconclusive: 5.62 µM [inhibitor, full curve, poor fit]"}, {"smiles": "CC[C@]1(C(=O)OC)[C@H]2C(=O)N(Cc3ccccc3)C(=O)[C@H]2[C@H]2CN=C(SCc3ccc(C#N)cc3)N21", "Potency": "inconclusive: 3.16 µM [inhibitor, full curve, poor fit]"}, {"smiles": "Cc1ccccc1S(=O)(=O)N(C)C[C@@H]1OCc2ccccc2-c2c(n(C)c3ccccc23)C(=O)N([C@H](C)CO)C[C@@H]1C", "Potency": "inconclusive: 20 µM [inhibitor, single point]"}, {"smiles": "COC(=O)C1=C(c2cc3ccccc3o2)C[C@@H]2CC[C@H]1N2C(=O)N1CCOCC1", "Potency": "inconclusive: 14.1 µM [inhibitor, partial curve]"}, {"smiles": "CCC(C)NC(=O)c1c(N)n(CC2CCCO2)c2nc3ccccc3nc12", "note": "(centres undefined)", "Potency": "inconclusive: 17.8 µM [inhibitor, single point]"}, {"smiles": "O=C(O)[C@@H]1C[C@H]2C[C@@H](CP(=O)(O)O)CC[C@H]2CN1", "activity, negative = inhibition": "inactive: -14.5%"}, {"smiles": "Cc1ccc2c(C)c3ccc4ccccc4c3c[n+]2c1", "Potency": "inconclusive: 22.4 µM [inhibitor, single point]"}, {"smiles": "Clc1cccc(N2Cc3cc(-c4ccccc4)ccc3-n3nncc3C2)c1", "Potency": "active: 7.94 µM"}, {"smiles": "COc1ccc(C(CNC(=O)CCc2ccsc2)N(C)C)cc1", "note": "(centres undefined)", "activity, negative = inhibition": "inactive: 16.8%"}, {"smiles": "Cc1nc2ncnn2c(C)c1CCC(=O)N1CCC2(CC1)OCCO2", "activity, negative = inhibition": "inactive: -5.03%"}]}]}
